# Measured values from PubChem BioAssay AID1240 (Sanford-Burnham Center for Chemical Genomics, 2008).
# About 800 (1.6%) of roughly 50,000 compounds showed an effect of 50% or more. Some of the results follow.
# Biological target: Bcl-2-like protein 10 (Homo sapiens) (UniProt Q9HD36)
# Test: TR3 peptide-Bcl-B binding displacers, biochemical primary FP assay, phenotype converters (AID 1240);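 further: 0% = Bcl-B with tracer peptide and DMSO and 100% = tracer peptide lacking Bcl-B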
# Settings: GST-Bcl-B / FITC-TR3 peptide fluorescence polarization; stronger effect = higher value; compound at 3.75 mg/L
# Chain of UniProt Q9HD36 (Q9HD36 whole entry, looked up): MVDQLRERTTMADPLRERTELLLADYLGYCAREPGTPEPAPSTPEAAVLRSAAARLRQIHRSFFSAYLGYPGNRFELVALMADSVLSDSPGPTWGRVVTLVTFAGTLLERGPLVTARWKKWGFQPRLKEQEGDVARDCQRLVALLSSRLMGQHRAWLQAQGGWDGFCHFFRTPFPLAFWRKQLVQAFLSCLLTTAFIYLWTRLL
row,SMILES,displacement [%]
1,Cc1c(C(=O)Nc2cccc(-c3nc4ccccc4o3)c2)cccc1[N+](=O)[O-],-3.2
2,N#C/C(=C\c1ccc(-c2ccccc2)o1)C(=O)Nc1ccc(C#N)cc1,168
3,Fc1ccccc1C=NN1CCN(c2ccccn2)CC1,-5.3
4,CCOC(=O)C1=C(N)c2ccccc2CC1(C)C1CCCCC1 (stereo not given),-15.9
5,O=C(NCCN1CCNCC1)C(=O)NCc1ccco1,1.8
6,N/C(=N\OC(=O)c1ccccc1Br)c1ccccc1,-12.2
7,COc1ccc(C2CC(=O)C3=C(C2)Nc2ccccc2NC3c2ccncc2)cc1OC (stereo not given),-5.8
8,COc1ccc(COC(=O)C2=C(C)NC3=C(C(=O)CC(C)(C)C3)C2c2ccc(Cl)c([N+](=O)[O-])c2)cc1 (stereo not given),3.9
9,CCOC(=O)c1ccc(NC(=O)Cc2ccc(Br)cc2)cc1,6.9
10,COc1ccc(-c2nnc(-c3sc4ccccc4c3Cl)o2)cc1,6.3
11,O=C(COc1ccc([N+](=O)[O-])cc1)Nc1cccc2nsnc12,13.9
12,CCN1C(=O)/C(=C/c2ccc(OC(=O)c3ccccc3I)c(OC)c2)SC1=S,-4.2
13,Cc1ccc2nc(-c3cc(N=C/C=C/c4ccc(Cl)cc4)ccc3O)oc2c1,1.8
14,CCc1ccc(-c2cc(C(=O)NC(C)C)c3ccccc3n2)cc1,-10.9
15,O=C(/C=C/c1cccc(C(F)(F)F)c1)Nc1cccc2ncccc12,14.9
16,O=C1NC(=Nc2cccc(O)c2)S/C1=C\c1cccc(O)c1,1.9
17,CCOC(=O)c1sc(NC(=O)c2ccc(Br)o2)nc1C,-10.7
18,O=C(Nc1cccnc1)c1cccc2c(Br)cccc12,0.8
19,Cc1ccsc1-c1ncnn1-c1ccc(Cl)cc1,15
20,CC(C)C1=NN2C(=N)/C(=C/c3ccc(-c4ccc(F)c(Cl)c4)o3)C(=O)N=C2S1,146
21,CCOc1cccc(-c2cc(C(=O)NN)[nH]n2)c1,-18.6
22,O=C(O)c1cccc(NC(=O)c2cc(S(=O)(=O)N(CCO)CCO)ccc2Cl)c1,-12.3
23,Cc1ccc(NC(=O)COc2ccc(C(C)(C)C)cc2)c([N+](=O)[O-])c1,4.5
24,Cc1ccc(S(=O)(=O)N/N=C2/CCCc3c2[nH]c2ccccc32)cc1,-7.7

row,SMILES,displacement [%]
1,COc1ccc(-c2cc(C(F)(F)F)n3nc(C(=O)OC(C)C)cc3n2)cc1OC,1.6
2,COc1cccc(N2C(=O)c3ccc(C(=O)Nc4ccccc4O)cc3C2=O)c1,-6.6
3,COc1ccccc1CC(=O)NCc1ccccn1,-2.1
4,Cc1ccc(C(C)C)c(OCC(=O)Nc2cccc(C)n2)c1,6.2
5,O=C(O)c1cc(C23CC4CC(CC(C4)C2)C3)nc2ccccc12,-6
6,CCOC(=O)CC(O)(c1ccccc1)C(F)(F)C(F)F (stereo not given),15.4
7,COc1ccc(C2=NN(c3ccccc3)C(c3ccccc3F)C2)cc1 (stereo not given),53.9
8,C/C(Nc1ccc2c(c1)OCO2)=C(/C#N)C(N)=O,15.6
9,CC(=O)Oc1ccccc1/C=C1\CCOC1=O,3.3
10,Nc1ccc(S(=O)(=O)Nc2cccc3cccnc23)cc1,13
11,Cc1ccccc1C1(Cc2ccccc2)C(=O)c2ccccc2C1=O,14.4
12,O=C(O)c1nc(N2C(=O)c3ccccc3C2=O)n[nH]1,-8.4
13,CCCOc1ccc(C(=O)Nc2ccc(-c3nc4cc(C)c(C)cc4o3)c(O)c2)cc1,10.8
14,NC(=O)c1ccc(NC(=O)CCN2C(=O)c3ccccc3C2=O)cc1,26.7
15,Cc1sc2nc(-c3ccc(C(C)C)cc3)[nH]c(=O)c2c1C,-9.2
16,Cc1ccc(S(=O)(=O)Nc2sc(Cc3ccccc3)c(C)c2C(N)=O)cc1,5.2
17,CCc1cccc(C)c1NC(=O)c1ccoc1C,15.2
18,COc1cccc2cc(C(=O)Nc3ccccc3C(=O)O)c(=O)oc12,7.8
19,CNS(=O)(=O)c1cc(O)c2c(S(=O)(=O)NC)cc(S(=O)(=O)NC)cc2c1,4
20,COC(=O)CN1C(=O)/C(=C\c2ccco2)SC1=S,13.3
21,N/C(=N\OC(=O)C12CC3CC(CC(C3)C1)C2)c1ccccn1,-8
22,Cc1ccc(C(=O)N/N=C/C=C/c2ccc([N+](=O)[O-])cc2)cn1,26.3
23,CC(=O)Nc1cc2nn(-c3ccc(C)cc3)nc2cc1C,1.3
24,COc1cccc(C2C(C(C)=O)=C(O)C(=O)N2CCN(C)C)c1 (stereo not given),5.2

row,SMILES,displacement [%]
1,COc1ccc(-n2c(SCC(=O)N3CCCCC3)nc(O)c(Cc3ccccc3)c2=O)cc1,8.7
2,COC(=O)CN(c1ccc(OC)cc1OC)S(=O)(=O)c1ccc(C)cc1,5.4
3,CC1=C(C(=O)N/N=C/c2c(O)ccc3ccccc23)Sc2ccccc2N1,2.3
4,N#C/C(=C\c1ccc2c(c1)OCO2)C(=O)Nc1ccc(F)cc1,-12.3
5,COc1cc(/C=C(/C#N)c2nc3ccccc3[nH]2)ccc1OC(C)C,-3.4
6,COc1cc2c(cc1OC)C(/C(=N/O)C(C)=O)=NCC2,-6
7,Cc1nc(-c2ccccc2)nc(N/N=C/c2cccc(F)c2)c1C,-2.5
8,CC1CCCCN1C(=O)c1cc(-c2ccccc2)nc2ccccc12 (stereo not given),3.9
9,O=c1oc(-c2ccc(Br)cc2)nc2ccccc12,-2.8
10,CCOc1ccc(C(=O)Nc2cc3nn(-c4ccc(OC)cc4)nc3cc2C)cc1,9.1
11,Cc1cccc(-n2c(C)cc(/C=N\NC(=O)c3ccco3)c2C)c1,-18.2
12,Brc1cccc(CN2CCN(C3CCN(Cc4ccccc4)CC3)CC2)c1,-28.6
13,COc1ccc(OC)c(C2NC(=O)NC(C)=C2C(=O)OCCc2ccccc2)c1Br (stereo not given),11
14,O=C(COc1ccc(Br)cc1)Nc1cc(Cl)cc(Cl)c1,3.9
15,Cc1ccc(C)c(N2C(=O)C3C4CC(=O)C(c5ccccc54)C3C2=O)c1 (stereo not given),-14.8
16,COc1ccc(CN2CCN(S(=O)(=O)c3ccc(C)cc3)CC2)c(OC)c1OC,-4.4
17,C=CCOc1ccc(Cl)cc1/C=C1/SC(=S)N(Cc2ccccc2)C1=O,12.4
18,CC(C)c1ccccc1OCC(=O)Nc1ccccc1C(=O)O,-3.3
19,CC1=C(C)CC(C(=O)Nc2ccc(N3C(=O)c4ccccc4C3=O)cc2)C(C(=O)O)C1 (stereo not given),18.6
20,O=C(Nc1ccc(F)cc1)c1ccccc1,11
21,CC(=O)Nc1ccc(N2C(=O)C3=C(C2=O)C2C=CC3C2)cc1,-9
22,COc1cc(-c2nc3sc4c(c3c(=O)[nH]2)CCCC4)ccc1OCC(=O)O,-6.5
